{"source": "the supplement of paper PMC7125110", "parents": {"B1": {"name": "glmS ribozyme (parent)", "chain": "AUAAAAGCGCCAGAACUACAGAAAUGUAGUUGACGAGGAGGAGGUUUAUCGAAUUUUCGGCGGAUGCCUCCAAA"}}, "settings_in_all_cases": "with glucosamine-6-phosphate", "key": {"glucosamine-6-phosphate [1]": {"variants_of": "B1", "experiment": "self-cleavage kobs at 40 uM GlcN6P; higher = faster cleavage; RNA array", "how_it_was_run": "(§1)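 Using a hybridised Cy3 probe at 37 °C, barcoded ribozyme variants transcribed in situ by E. coli RNA polymerase on sequenced MiSeq chips were monitored across tiles imaged over ~14 h. The flow contained glucosamine-6-phosphate from 40 μM to 10 mM in HEPES/KCl/Mg(OAc)2 buffer. Signals were normalised to baseline and to non-cleaving reference variants before per-tile medians were fit to one- or two-exponential decays to yield kobs. Weighted Michaelis–Menten fits across concentrations gave kcat and KM.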"}, "glucosamine-6-phosphate [2]": {"variants_of": "B1", "experiment": "self-cleavage kobs at 640 uM GlcN6P; higher = faster cleavage; RNA array", "how_it_was_run": "as §1"}, "glucosamine-6-phosphate [3]": {"variants_of": "B1", "experiment": "self-cleavage kobs at 160 uM GlcN6P; higher = faster cleavage; RNA array", "how_it_was_run": "as §1"}, "glucosamine-6-phosphate [4]": {"variants_of": "B1", "experiment": "self-cleavage kobs at 2500 uM GlcN6P; higher = faster cleavage; RNA array", "how_it_was_run": "as §1"}, "glucosamine-6-phosphate [5]": {"variants_of": "B1", "experiment": "self-cleavage kobs at 10000 uM GlcN6P; higher = faster cleavage; RNA array", "how_it_was_run": "as §1"}}, "note": "± gives the standard error. This sample is rich in variants without activity."}
{"variant": "A14G C16U U45G C67U", "values": [{"measurement": "self-cleavage kobs at 40 uM GlcN6P", "setting": "glucosamine-6-phosphate [1]", "result": "0.00026 ± 6.6e-05", "unit": "s⁻¹"}, {"measurement": "self-cleavage kobs at 640 uM GlcN6P", "setting": "glucosamine-6-phosphate [2]", "result": "0.00248 ± 0.0012", "unit": "s⁻¹"}, {"measurement": "self-cleavage kobs at 160 uM GlcN6P", "setting": "glucosamine-6-phosphate [3]", "result": "0.000132 ± 3e-05", "unit": "s⁻¹"}, {"measurement": "self-cleavage kobs at 2500 uM GlcN6P", "setting": "glucosamine-6-phosphate [4]", "result": "0.00988 ± 0.0035", "unit": "s⁻¹"}]}
{"variant": "A14G G60C", "values": [{"measurement": "self-cleavage kobs at 40 uM GlcN6P", "setting": "glucosamine-6-phosphate [1]", "result": "< 1e-05", "unit": "s⁻¹"}, {"measurement": "self-cleavage kobs at 160 uM GlcN6P", "setting": "glucosamine-6-phosphate [3]", "result": "< 1e-05", "unit": "s⁻¹"}]}
{"variant": "C16U G59C C61G", "values": [{"measurement": "self-cleavage kobs at 40 uM GlcN6P", "setting": "glucosamine-6-phosphate [1]", "result": "< 1e-05", "unit": "s⁻¹"}, {"measurement": "self-cleavage kobs at 10000 uM GlcN6P", "setting": "glucosamine-6-phosphate [5]", "result": "< 1e-05", "unit": "s⁻¹"}]}
{"variant": "C16A G59C U65G", "values": [{"measurement": "self-cleavage kobs at 40 uM GlcN6P", "setting": "glucosamine-6-phosphate [1]", "result": "< 1e-05", "unit": "s⁻¹"}, {"measurement": "self-cleavage kobs at 10000 uM GlcN6P", "setting": "glucosamine-6-phosphate [5]", "result": "< 1e-05", "unit": "s⁻¹"}]}
{"variant": "C16U U49A", "values": [{"measurement": "self-cleavage kobs at 40 uM GlcN6P", "setting": "glucosamine-6-phosphate [1]", "result": "< 1e-05", "unit": "s⁻¹"}, {"measurement": "self-cleavage kobs at 640 uM GlcN6P", "setting": "glucosamine-6-phosphate [2]", "result": "< 1e-05", "unit": "s⁻¹"}, {"measurement": "self-cleavage kobs at 160 uM GlcN6P", "setting": "glucosamine-6-phosphate [3]", "result": "< 1e-05", "unit": "s⁻¹"}]}
{"variant": "A14G C58U G62U", "values": [{"measurement": "self-cleavage kobs at 40 uM GlcN6P", "setting": "glucosamine-6-phosphate [1]", "result": "< 1e-05", "unit": "s⁻¹"}]}
{"variant": "U31G C50U", "values": [{"measurement": "self-cleavage kobs at 40 uM GlcN6P", "setting": "glucosamine-6-phosphate [1]", "result": "< 1e-05", "unit": "s⁻¹"}]}
{"variant": "A14G U45G", "values": [{"measurement": "self-cleavage kobs at 40 uM GlcN6P", "setting": "glucosamine-6-phosphate [1]", "result": "0.000286 ± 0.0001", "unit": "s⁻¹"}, {"measurement": "self-cleavage kobs at 640 uM GlcN6P", "setting": "glucosamine-6-phosphate [2]", "result": "0.00617 ± 0.0025", "unit": "s⁻¹"}, {"measurement": "self-cleavage kobs at 160 uM GlcN6P", "setting": "glucosamine-6-phosphate [3]", "result": "0.000908 ± 0.00024", "unit": "s⁻¹"}, {"measurement": "self-cleavage kobs at 2500 uM GlcN6P", "setting": "glucosamine-6-phosphate [4]", "result": "0.00864 ± 0.003", "unit": "s⁻¹"}, {"measurement": "self-cleavage kobs at 10000 uM GlcN6P", "setting": "glucosamine-6-phosphate [5]", "result": "0.0175 ± 0.0071", "unit": "s⁻¹"}]}
{"variant": "A14U C16A C50A A64U", "values": [{"measurement": "self-cleavage kobs at 40 uM GlcN6P", "setting": "glucosamine-6-phosphate [1]", "result": "< 1e-05", "unit": "s⁻¹"}, {"measurement": "self-cleavage kobs at 10000 uM GlcN6P", "setting": "glucosamine-6-phosphate [5]", "result": "< 1e-05", "unit": "s⁻¹"}]}
{"variant": "U30A U31A", "values": [{"measurement": "self-cleavage kobs at 40 uM GlcN6P", "setting": "glucosamine-6-phosphate [1]", "result": "0.000419 ± 7.6e-05", "unit": "s⁻¹"}, {"measurement": "self-cleavage kobs at 640 uM GlcN6P", "setting": "glucosamine-6-phosphate [2]", "result": "0.00269 ± 0.00057", "unit": "s⁻¹"}, {"measurement": "self-cleavage kobs at 160 uM GlcN6P", "setting": "glucosamine-6-phosphate [3]", "result": "0.00152 ± 0.00033", "unit": "s⁻¹"}]}
{"variant": "U30G G59U C71A", "values": [{"measurement": "self-cleavage kobs at 40 uM GlcN6P", "setting": "glucosamine-6-phosphate [1]", "result": "< 1e-05", "unit": "s⁻¹"}, {"measurement": "self-cleavage kobs at 10000 uM GlcN6P", "setting": "glucosamine-6-phosphate [5]", "result": "< 1e-05", "unit": "s⁻¹"}]}
{"variant": "C16U U46G", "values": [{"measurement": "self-cleavage kobs at 40 uM GlcN6P", "setting": "glucosamine-6-phosphate [1]", "result": "0.00014 ± 1.3e-05", "unit": "s⁻¹"}, {"measurement": "self-cleavage kobs at 640 uM GlcN6P", "setting": "glucosamine-6-phosphate [2]", "result": "0.00131 ± 0.00016", "unit": "s⁻¹"}, {"measurement": "self-cleavage kobs at 160 uM GlcN6P", "setting": "glucosamine-6-phosphate [3]", "result": "0.000489 ± 8.8e-05", "unit": "s⁻¹"}, {"measurement": "self-cleavage kobs at 2500 uM GlcN6P", "setting": "glucosamine-6-phosphate [4]", "result": "0.00323 ± 0.0005", "unit": "s⁻¹"}, {"measurement": "self-cleavage kobs at 10000 uM GlcN6P", "setting": "glucosamine-6-phosphate [5]", "result": "0.00531 ± 0.00055", "unit": "s⁻¹"}]}
{"variant": "C16G C70U", "values": [{"measurement": "self-cleavage kobs at 40 uM GlcN6P", "setting": "glucosamine-6-phosphate [1]", "result": "0.000111 ± 1.4e-05", "unit": "s⁻¹"}, {"measurement": "self-cleavage kobs at 640 uM GlcN6P", "setting": "glucosamine-6-phosphate [2]", "result": "0.000455 ± 8e-05", "unit": "s⁻¹"}, {"measurement": "self-cleavage kobs at 160 uM GlcN6P", "setting": "glucosamine-6-phosphate [3]", "result": "0.000359 ± 6.2e-05", "unit": "s⁻¹"}, {"measurement": "self-cleavage kobs at 2500 uM GlcN6P", "setting": "glucosamine-6-phosphate [4]", "result": "0.000561 ± 9e-05", "unit": "s⁻¹"}, {"measurement": "self-cleavage kobs at 10000 uM GlcN6P", "setting": "glucosamine-6-phosphate [5]", "result": "0.00521 ± 0.001", "unit": "s⁻¹"}]}
{"variant": "C16U G37A", "values": [{"measurement": "self-cleavage kobs at 40 uM GlcN6P", "setting": "glucosamine-6-phosphate [1]", "result": "7.36e-05 ± 1.1e-05", "unit": "s⁻¹"}, {"measurement": "self-cleavage kobs at 640 uM GlcN6P", "setting": "glucosamine-6-phosphate [2]", "result": "0.000713 ± 7.9e-05", "unit": "s⁻¹"}, {"measurement": "self-cleavage kobs at 160 uM GlcN6P", "setting": "glucosamine-6-phosphate [3]", "result": "0.000108 ± 1.3e-05", "unit": "s⁻¹"}]}
{"variant": "A14U G37U U57A G60U", "values": [{"measurement": "self-cleavage kobs at 40 uM GlcN6P", "setting": "glucosamine-6-phosphate [1]", "result": "< 1e-05", "unit": "s⁻¹"}, {"measurement": "self-cleavage kobs at 640 uM GlcN6P", "setting": "glucosamine-6-phosphate [2]", "result": "< 1e-05", "unit": "s⁻¹"}, {"measurement": "self-cleavage kobs at 2500 uM GlcN6P", "setting": "glucosamine-6-phosphate [4]", "result": "< 1e-05", "unit": "s⁻¹"}, {"measurement": "self-cleavage kobs at 10000 uM GlcN6P", "setting": "glucosamine-6-phosphate [5]", "result": "< 1e-05", "unit": "s⁻¹"}]}
{"variant": "U30A C34A", "values": [{"measurement": "self-cleavage kobs at 40 uM GlcN6P", "setting": "glucosamine-6-phosphate [1]", "result": "< 1e-05", "unit": "s⁻¹"}, {"measurement": "self-cleavage kobs at 640 uM GlcN6P", "setting": "glucosamine-6-phosphate [2]", "result": "< 1e-05", "unit": "s⁻¹"}, {"measurement": "self-cleavage kobs at 160 uM GlcN6P", "setting": "glucosamine-6-phosphate [3]", "result": "< 1e-05", "unit": "s⁻¹"}, {"measurement": "self-cleavage kobs at 2500 uM GlcN6P", "setting": "glucosamine-6-phosphate [4]", "result": "< 1e-05", "unit": "s⁻¹"}, {"measurement": "self-cleavage kobs at 10000 uM GlcN6P", "setting": "glucosamine-6-phosphate [5]", "result": "< 1e-05", "unit": "s⁻¹"}]}
{"variant": "A14U A53C", "values": [{"measurement": "self-cleavage kobs at 40 uM GlcN6P", "setting": "glucosamine-6-phosphate [1]", "result": "3.59e-05 ± 9.1e-06", "unit": "s⁻¹"}, {"measurement": "self-cleavage kobs at 640 uM GlcN6P", "setting": "glucosamine-6-phosphate [2]", "result": "0.000309 ± 3.9e-05", "unit": "s⁻¹"}, {"measurement": "self-cleavage kobs at 160 uM GlcN6P", "setting": "glucosamine-6-phosphate [3]", "result": "9.57e-05 ± 1.5e-05", "unit": "s⁻¹"}, {"measurement": "self-cleavage kobs at 2500 uM GlcN6P", "setting": "glucosamine-6-phosphate [4]", "result": "0.000834 ± 7.7e-05", "unit": "s⁻¹"}, {"measurement": "self-cleavage kobs at 10000 uM GlcN6P", "setting": "glucosamine-6-phosphate [5]", "result": "0.00105 ± 0.00014", "unit": "s⁻¹"}]}
{"variant": "C16U A39C", "values": [{"measurement": "self-cleavage kobs at 40 uM GlcN6P", "setting": "glucosamine-6-phosphate [1]", "result": "0.000107 ± 1.4e-05", "unit": "s⁻¹"}, {"measurement": "self-cleavage kobs at 2500 uM GlcN6P", "setting": "glucosamine-6-phosphate [4]", "result": "0.00222 ± 0.00082", "unit": "s⁻¹"}, {"measurement": "self-cleavage kobs at 10000 uM GlcN6P", "setting": "glucosamine-6-phosphate [5]", "result": "0.00545 ± 0.0006", "unit": "s⁻¹"}]}
{"variant": "U30C U55A U57G", "values": [{"measurement": "self-cleavage kobs at 40 uM GlcN6P", "setting": "glucosamine-6-phosphate [1]", "result": "< 1e-05", "unit": "s⁻¹"}]}
{"variant": "A15G C16U A52U U57A G59U", "values": [{"measurement": "self-cleavage kobs at 40 uM GlcN6P", "setting": "glucosamine-6-phosphate [1]", "result": "< 1e-05", "unit": "s⁻¹"}, {"measurement": "self-cleavage kobs at 160 uM GlcN6P", "setting": "glucosamine-6-phosphate [3]", "result": "< 1e-05", "unit": "s⁻¹"}, {"measurement": "self-cleavage kobs at 10000 uM GlcN6P", "setting": "glucosamine-6-phosphate [5]", "result": "< 1e-05", "unit": "s⁻¹"}]}
